Experimental data: publication PMC3313914
These are yes or no findings as the source states them, for the method shown. In cells and extracts the contact can be indirect. Some entries that bind do so weakly or less than the wild type. For some of these results: Where a sequence is shown, tags or fusion partners need not be part of it. Each block holds one molecule with its values, some of them ahead of it.

Amino acid sequences for entries named in this document (tags omitted). A change or cut given only in a name is not applied to a line headed by its entry. Residues count along the entry.
UniProt P47822: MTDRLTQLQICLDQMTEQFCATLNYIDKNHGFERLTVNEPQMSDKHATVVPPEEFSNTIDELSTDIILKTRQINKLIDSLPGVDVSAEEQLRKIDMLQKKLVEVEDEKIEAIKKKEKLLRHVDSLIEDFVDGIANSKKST
GST-Srb7Δ40: residues 41-140 of P47822
UniProt P52286: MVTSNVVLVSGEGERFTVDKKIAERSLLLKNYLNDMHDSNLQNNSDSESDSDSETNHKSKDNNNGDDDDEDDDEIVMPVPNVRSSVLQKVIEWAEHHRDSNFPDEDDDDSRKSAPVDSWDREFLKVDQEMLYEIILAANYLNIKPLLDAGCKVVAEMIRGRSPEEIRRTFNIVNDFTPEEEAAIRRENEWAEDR

Key:
[1] = biological target: Srb7 fused to Cub-RUra3 (S. cerevisiae) (UniProt P47822); test: split reporter; Split-Ubiquitin assay in S. cerevisiae JD52: Srb7 fused to Cub-RUra3 and Nub-HA fused to Skp1 derivatives; lack of growth without uracil and growth on FOA
GST-Srb7 (S. cerevisiae) = GST-Srb7 (S. cerevisiae) (UniProt P47822); test: pull-down; whole-cell extracts of JD52 cells expressing the GST-Srb7 derivative in place of endogenous Srb7 and Nub-HA-Skp1, incubated with glutathione beads; five washes; Western blot with anti-HA and anti-GST
[2] = biological target: GST-Srb7Δ40 (S. cerevisiae) (UniProt P47822); test: as above
[3] = biological target: T1, Snf1-HA3-H10 (S. cerevisiae) (UniProt P06782); test: pull-down; Snf1-HA3-H10 pulled down with Ni-beads from extracts of BY4742ΔW cells expressing HA-Gal80; cells grown with glucose or induced with galactose for 1 h; Western blot with an HA antibody
T1 sequence: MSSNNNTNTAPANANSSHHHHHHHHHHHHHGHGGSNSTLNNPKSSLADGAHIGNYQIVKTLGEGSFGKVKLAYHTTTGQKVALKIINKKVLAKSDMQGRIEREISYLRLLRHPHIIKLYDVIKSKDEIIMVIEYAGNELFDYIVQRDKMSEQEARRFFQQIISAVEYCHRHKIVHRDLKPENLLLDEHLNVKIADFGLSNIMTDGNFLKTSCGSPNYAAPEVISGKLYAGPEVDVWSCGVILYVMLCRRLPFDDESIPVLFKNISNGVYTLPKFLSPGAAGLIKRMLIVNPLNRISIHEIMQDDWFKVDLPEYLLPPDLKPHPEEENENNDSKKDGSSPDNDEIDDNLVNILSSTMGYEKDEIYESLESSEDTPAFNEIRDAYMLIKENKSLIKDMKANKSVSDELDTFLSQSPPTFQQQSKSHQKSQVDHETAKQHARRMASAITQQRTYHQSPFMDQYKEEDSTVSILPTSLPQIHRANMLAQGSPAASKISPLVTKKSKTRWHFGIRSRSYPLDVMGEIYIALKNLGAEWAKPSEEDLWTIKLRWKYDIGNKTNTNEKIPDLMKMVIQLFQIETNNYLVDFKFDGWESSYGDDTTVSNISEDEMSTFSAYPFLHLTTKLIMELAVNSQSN

- binding [1]: binds
- binding (GST-Srb7 (S. cerevisiae)): binds
- binding [2]: no binding
Molecule: Nub-HA-Skp1 (from UniProt P52286 1-194)

- binding [3]: no binding
B1: HA-Gal80 (protein, UniProt P04387 1-435)
chain: MDYNKRSSVSTVPNAAPIRVGFVGLNAAKGWAIKTHYPAILQLSSQFQITALYSPKIETSIATIQRLKLSNATAFPTLESFASSSTIDMIVIAIQVASHYEVVMPLLEFSKNNPNLKYLFVEWALACSLDQAESIYKAAAERGVQTIISLQGRKSPYILRAKELISQGYIGDINSIEIAGNGGWYGYERPVKSPKYIYEIGNGVDLVTTTFGHTIDILQYMTSSYFSRINAMVFNNIPEQELIDERGNRLGQRVPKTVPDHLLFQGTLLNGNVPVSCSFKGGKPTKKFTKNLVIDIHGTKGDLKLEGDAGFAEISNLVLYYSGTRANDFPLANGQQAPLDPGYDAGKEIMEVYHLRNYNAIVGNIHRLYQSISDFHFNTKKIPELPSQFVMQGFDFEGFPTLMDALILHRLIESVYKSNMMGSTLNVSNISHYSL
